This is an account of results in the supplement of paper PMC11417369.

Some of the results follow.

The experiment has as its system PfAP2-HC AP2 domain (GST-tagged). Description: gcPBM binding intensity (ln(normalized median fluorescence intensity)); higher = stronger DNA binding. The procedure, abridged: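 GST-fused DNA-binding domains of P. falciparum, expressed in E. coli, were applied at about 25 μg on average for 1 h to an Agilent 4 × 180k array of primer-extended double-stranded 36-bp intergenic genomic probes and negative controls. Binding intensity is the highest Masliner-normalised natural-log median intensity across replicate spots of either probe orientation, measured with Alexa488 anti-GST antibody and a 488 nm scan.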
Consider “GAGCACCAAAATATATGTACATATGATAAATGTGAA [XGTACX_site1130]”, for which the “gcPBM binding intensity (ln)” value came to 9.63. In the case of “ACATATATATAATATATATTTTTCGTGTGGTGTCAC [CACACA_negctrl_site543]”, the “gcPBM binding intensity (ln)” value came out at 9.63.

For the sequence “ATCATTGAAGTTAAAAATATAAAGTATTCAGAAGGG [XGTACX_negctrl_site560]”, the “gcPBM binding intensity (ln)” value stood at 9.57. As for “AATATATATATAGGATGTACACATAATTCAAATATA [XGTACX_site2755]”, the “gcPBM binding intensity (ln)” value stood at 9.83.

As for “TCACTTTTATAATATAATATTCTATATCTTATTTTT [GTGCAC_negctrl_site717]”, the “gcPBM binding intensity (ln)” value is 9.83.

In the case of “TTTTTTATTTTATTTTTTTCTGCTTATCCACATTAG [XGTACX_negctrl_site108]”, the “gcPBM binding intensity (ln)” value is 9.41. Turning to “AGCCATTATAATTCTTGTACATAATATAGCTATTTT [XGTACX_site1723]”, the “gcPBM binding intensity (ln)” value was 9.9. As for “TATTTAAATTGTAAGTGTACATATATAAATGTAAAA [XGTACX_site1609]”, the “gcPBM binding intensity (ln)” value came to 9.66.

For “TATATAGTAATTTATTCACACAATTGGCACACCTCA [CACACA_site4679]”, the “gcPBM binding intensity (ln)” value is 9.89.

Turning to “TATAATATATATTTGTGTCCACAACATTTTTAATAT [XGTACX_site2089]”, the “gcPBM binding intensity (ln)” value was 9.68. Consider AATAAATTAAAACAGGTGCACTATATTACACACGCT, for which the “gcPBM binding intensity (ln)” value was 9.88.

For “TAGATACAGAAACACACACACACATACATATATACA [CACACA_site3437]”, the “gcPBM binding intensity (ln)” value is 10.6. Take “TTATGGAGAGTTATATGTACGAAAAATATGTATAAG [XGTACX_site515]”: the “gcPBM binding intensity (ln)” value worked out at 9.54.

Consider “AGAATTATTGTTAATGCATGTGGAAGTTAAAATATT [TGCATGCA_site188]”, for which the “gcPBM binding intensity (ln)” value worked out at 9.71.

In the case of “AATAATATATGGTGTACACAAAAGTATAAATAATTT [CACACA_site5338]”, the “gcPBM binding intensity (ln)” value stood at 10.1.

Turning to “TATAAAAAAATAATAAATAAATAAAAAGATTTCTTT [TGCATGCA_negctrl_site122]”, the “gcPBM binding intensity (ln)” value worked out at 9.53. For “TAGATACATACACGCACACACATATATAAATAAATA [CACACA_site6157]” the value was 10.9; for “TTACGTATGTATTATGTTGTATATGAAATTAAAAAA [GTGCAC_negctrl_site292]”, 9.44. Turning to “TAATTATGTACTATTATACACACGTTTAATTGTAAA [CACACA_site206]”, the “gcPBM binding intensity (ln)” value is 9.64.

In the case of “TAAAAAGGAAAACACACACACACATATATATATATA [CACACA_site3588]”, the “gcPBM binding intensity (ln)” value turned out to be 11.4.

Consider “TTACTAAAAATTATTAATAAATAATAATTATAAATT [GTGCAC_negctrl_site310]”, for which the “gcPBM binding intensity (ln)” value turned out to be 9.34. On to “TTATTATTAAGACACACACACAAAAAAAAAAAAAAA [CACACA_site6805]”, for which the “gcPBM binding intensity (ln)” value was 10.1. In the case of “TTTCCAATTAGTTTTGCATGTTGAAAAAATGTTGGA [TGCATGCA_site1035]”, the “gcPBM binding intensity (ln)” value was found to be 9.34. “TATTTTAACTTCTCATGTACATATATTATGTCTATA [XGTACX_site249]”: the “gcPBM binding intensity (ln)” value was found to be 9.86. In the case of “TATCATAAACTTCCTTACTATACTTTTCTTATTCAT [CACACA_negctrl_site1341]”, the “gcPBM binding intensity (ln)” value was 9.75. As for “CTTTGTAGTATATTAACACACAACTATTTATAATAT [CACACA_site3934]”, the “gcPBM binding intensity (ln)” value came out at 9.82. Regarding “TTGTGTTTGCGTAAATGTACGGAAAGACTTGAAGAC [XGTACX_site7235]”, the “gcPBM binding intensity (ln)” value is 9.81.

Turning to “TTGTTAGAGTATATTGAAAGGATAACCTTTTTTTAT [XGTACX_negctrl_site122]”, the “gcPBM binding intensity (ln)” value stood at 9.43. For “ACCATACATACATACACACACACACCCATATATATA [CACACA_site2917]”, the “gcPBM binding intensity (ln)” value was found to be 10.6.

In the case of “TTTCATGTTTTAAAGTGTACATAAATATATTATATG [XGTACX_site3367]”, the “gcPBM binding intensity (ln)” value came out at 9.64. On to “ACACTTAAATATTGTTGTACAAAATGATAAAATGTA [XGTACX_site4588]”, for which the “gcPBM binding intensity (ln)” value was determined as 9.88. In the case of “GGAAACACAATATATACACACATATATATATATATA [CACACA_site235]”, the “gcPBM binding intensity (ln)” value amounted to 9.82. On to “TTGATGTATACAATGTAGATTATTTAATATTTCAAT [GTGCAC_negctrl_site203]”, for which the “gcPBM binding intensity (ln)” value was 9.48.

“TTATATAACCCTCATGCATGCTAAGAAAAAAAAAAC [TGCATGCA_site936]”: the “gcPBM binding intensity (ln)” value was 9.55.

For “ATTTATATTATAATATGTACACAAAAAAAATTAGGA [XGTACX_site565]”, the “gcPBM binding intensity (ln)” value worked out at 9.64. Consider “TAACATATCTTTAATACACACTTAAAAAAGTACTTA [CACACA_site4532]”, for which the “gcPBM binding intensity (ln)” value turned out to be 9.41. Turning to “AGCATTAAAAATGGAATGGAATTAAGCTATATATTA [CACACA_negctrl_site1571]”, the “gcPBM binding intensity (ln)” value came out at 9.8.

Turning to “GAAACTTCAAGAAATGCACACAATAAAATAAATAAA [CACACA_site1549]”, the “gcPBM binding intensity (ln)” value came to 9.89. As to “AGTATATATTATATATATATATATATATTATATATG [TGCATGCA_negctrl_site99]”, the “gcPBM binding intensity (ln)” value was 9.47.

For “ATAGAATATTATATTACACACAGAATAATAAAAAAT [CACACA_site86]”, the “gcPBM binding intensity (ln)” value is 9.98. Consider “ACATCTCTTATATATTCACACACATATATATAATTA [CACACA_site8424]”, for which the “gcPBM binding intensity (ln)” value is 10. With “TTAAAAAATTTTTAAGCACACACATAGATAATATAT [CACACA_site8440]”, the “gcPBM binding intensity (ln)” value was found to be 9.96.

In the case of “TTTTTTTTTTAATTCGCACACTGTCTTCATGCAATT [CACACA_site4882]”, the “gcPBM binding intensity (ln)” value came out at 9.92. For the sequence “GCACATCTATATGAAACACACATGGAAACATCTCTT [CACACA_site7793]”, the “gcPBM binding intensity (ln)” value worked out at 9.81.
